SMILES strings stand for the structures. About 2,200 (0.71%) of roughly 310,000 compounds showed an effect of 50% or more. The effect is printed as a negative number. Some of the results follow.

The target in this assay is human ether-à-go-go-related gene (hERG) potassium channel (human, UniProt Q12809). Briefly: primary screen, population patch clamp on CHO cells stably expressing hERG.
human ether-à-go-go-related gene (hERG) potassium channel, sequence (Q12809 whole entry, looked up): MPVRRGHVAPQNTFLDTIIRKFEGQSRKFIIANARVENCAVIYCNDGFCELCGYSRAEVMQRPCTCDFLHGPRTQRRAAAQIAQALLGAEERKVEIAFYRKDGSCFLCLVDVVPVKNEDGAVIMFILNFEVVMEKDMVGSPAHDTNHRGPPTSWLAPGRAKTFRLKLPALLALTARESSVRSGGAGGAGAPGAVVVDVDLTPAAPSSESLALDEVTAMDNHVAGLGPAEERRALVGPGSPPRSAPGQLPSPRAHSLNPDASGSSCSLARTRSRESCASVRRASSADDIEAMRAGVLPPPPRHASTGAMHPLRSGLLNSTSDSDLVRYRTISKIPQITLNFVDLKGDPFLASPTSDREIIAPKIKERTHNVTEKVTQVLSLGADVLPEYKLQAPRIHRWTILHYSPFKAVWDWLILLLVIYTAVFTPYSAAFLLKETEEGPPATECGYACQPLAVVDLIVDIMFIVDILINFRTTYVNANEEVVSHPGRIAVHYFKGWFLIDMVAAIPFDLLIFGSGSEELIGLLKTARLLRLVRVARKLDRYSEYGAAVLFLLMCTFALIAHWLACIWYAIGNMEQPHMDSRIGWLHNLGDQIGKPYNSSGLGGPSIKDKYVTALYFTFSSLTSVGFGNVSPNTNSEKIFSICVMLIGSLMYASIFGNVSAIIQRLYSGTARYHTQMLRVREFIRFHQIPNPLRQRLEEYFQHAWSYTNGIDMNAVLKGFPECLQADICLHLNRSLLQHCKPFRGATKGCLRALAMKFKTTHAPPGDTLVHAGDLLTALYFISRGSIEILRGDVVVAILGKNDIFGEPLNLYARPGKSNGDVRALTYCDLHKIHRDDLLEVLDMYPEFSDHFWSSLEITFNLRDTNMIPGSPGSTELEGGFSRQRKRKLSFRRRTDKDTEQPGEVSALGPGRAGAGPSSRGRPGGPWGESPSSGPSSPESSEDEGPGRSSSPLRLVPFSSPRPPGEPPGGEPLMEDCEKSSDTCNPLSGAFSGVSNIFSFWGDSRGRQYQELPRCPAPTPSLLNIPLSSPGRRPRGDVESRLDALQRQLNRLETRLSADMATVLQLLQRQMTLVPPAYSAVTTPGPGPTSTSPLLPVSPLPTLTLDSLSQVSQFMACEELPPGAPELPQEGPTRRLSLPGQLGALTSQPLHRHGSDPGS
In the case of `Cc1ccccc1NC(=O)C1CCN(C(=O)NC2CCCCC2)CC1`, the “hERG current change (%, negative = inhibition) at 1uM” value was determined as 6%.

On to `COc1cccc(C(=O)NCC(=O)N/N=C(\C)Cc2ccccc2)c1`, for which the “hERG current change (%, negative = inhibition) at 1uM” value was determined as 14.3%.

With `CCCC(OC(=O)CC1Sc2ccccc2NC1=O)C(=O)NCc1ccco1` (stereo not shown), the “hERG current change (%, negative = inhibition) at 1uM” value stood at 9.61%.

On to `Cc1nn(C)c(Oc2cccc(Cl)c2)c1C#N`, for which the “hERG current change (%, negative = inhibition) at 1uM” value worked out at 3.37%.

Consider `CCOC(=O)c1oc2ccccc2c1NC(=O)C1CCCCC1`, for which the “hERG current change (%, negative = inhibition) at 1uM” value is given as -2.3%.

With `CCOC(=O)c1c[nH]n(-c2ccc(C)cc2)c1=O`, the “hERG current change (%, negative = inhibition) at 1uM” value is 10.1%.

Take `COc1ccc(-c2nnc(SCc3ccccc3F)o2)cc1OC`: the “hERG current change (%, negative = inhibition) at 1uM” value turned out to be 13%.

For the compound `Cc1ccc(C)c(/C=N/Nc2ccccn2)c1`, the “hERG current change (%, negative = inhibition) at 1uM” value is given as -5.26%.

With `Cc1ccc(S(=O)(=O)N2CCOCC2)cc1C(=O)NCc1ccccc1CN1CCCC1`, the “hERG current change (%, negative = inhibition) at 1uM” value is listed as -25.6%.

Turning to `CCCNC(=O)c1onc(CSc2ccc(F)cc2)c1C(=O)NC(C)C`, the “hERG current change (%, negative = inhibition) at 1uM” value came out at 2.99%.

In the case of `COc1ccc(OC)c(S(=O)(=O)N2CCCC(N3CCN(c4ccccc4)CC3)C2)c1` (stereo not shown), the “hERG current change (%, negative = inhibition) at 1uM” value stood at 8.5%.

With `O=C(C1CC1)N1CCN(c2ccc(F)cc2)CC1`, the “hERG current change (%, negative = inhibition) at 1uM” value is 17.9%.

On to `O=C(Nc1nnc(-c2ccccc2)o1)NC1CCCCC1`, for which the “hERG current change (%, negative = inhibition) at 1uM” value stood at 7.53%.

In the case of `CCS(=O)(=O)c1ccc(O)c(NC(=O)CC2(CC(=O)O)CCCC2)c1`, the “hERG current change (%, negative = inhibition) at 1uM” value is recorded as 10.9%.

For the compound `Cc1ccc(S(=O)(=O)N(C)c2nonc2C)cc1`, the “hERG current change (%, negative = inhibition) at 1uM” value was -13%.

With `CC(=O)c1cccc(NC(=O)Nc2cccs2)c1`, the “hERG current change (%, negative = inhibition) at 1uM” value is listed as 9%.

Consider `Cc1oc(-c2ccccc2Cl)nc1CS(=O)CC(=O)NCc1ccccc1Cl` (stereo not shown), for which the “hERG current change (%, negative = inhibition) at 1uM” value came to 11.3%.

For `CC(C)(C)c1ccc2c(c1)OC(C(=O)N/N=C\c1ccc[nH]1)CO2` (stereo not shown), the “hERG current change (%, negative = inhibition) at 1uM” value is 1.63%.

Take `COc1ccc2noc3c2c1C(=O)c1ccccc1-3`: the “hERG current change (%, negative = inhibition) at 1uM” value is recorded as 12.3%.

With `O=C(Cn1cncn1)N/N=C/c1c2ccccc2cc2ccccc12`, the “hERG current change (%, negative = inhibition) at 1uM” value is listed as 3.21%.

For `Cc1nc2nc(C)c(CCC(=O)NCCCN3CCN(c4cccc(Cl)c4)CC3)c(C)n2n1.Cl`, the “hERG current change (%, negative = inhibition) at 1uM” value is listed as 6.6%.

Take `O=C(COc1cccnc1[N+](=O)[O-])Nc1ccccc1Sc1ccccc1`: the “hERG current change (%, negative = inhibition) at 1uM” value was found to be 4.72%.

Turning to `Cc1sc2nc(N3CCOCC3)[nH]c(=O)c2c1-c1ccccc1`, the “hERG current change (%, negative = inhibition) at 1uM” value was 2.1%.

In the case of `CC(C)C(NC(=O)COc1ccccc1)C(=O)O` (stereo not shown), the “hERG current change (%, negative = inhibition) at 1uM” value was found to be 2.74%.

For `COc1ccc(C(c2sc3nc(C)nn3c2O)N2CCN(CCO)CC2)cc1OC` (stereo not shown), the “hERG current change (%, negative = inhibition) at 1uM” value worked out at 12.2%.

Turning to `CCOC(=O)C1=C(CC)Nc2ccccc2N=C1NC(=O)Nc1ccc(Cl)c(Cl)c1`, the “hERG current change (%, negative = inhibition) at 1uM” value is recorded as -1.58%.

For `Cc1cc(Cl)c(S(=O)(=O)NC(C)C)cc1OCC(N)=O`, the “hERG current change (%, negative = inhibition) at 1uM” value came out at 17.3%.

For `CCOC(=O)c1ccc(NC(=O)Cc2cccs2)cc1`, the “hERG current change (%, negative = inhibition) at 1uM” value stood at 7.18%.

Regarding `COc1c[nH]n(C2CCCCC2)c(=O)c1=O`, the “hERG current change (%, negative = inhibition) at 1uM” value came out at 13.6%.

Regarding `CC(=O)C1C(c2cccc(Oc3ccccc3)c2)NC(=O)NC1(O)C(F)(F)F` (stereo not shown), the “hERG current change (%, negative = inhibition) at 1uM” value stood at 4.89%.

Turning to `CCOC(=O)C1(Cc2ccccc2)CCCN(C(=O)c2ccc(-n3ccnc3)cc2)C1` (stereo not shown), the “hERG current change (%, negative = inhibition) at 1uM” value is given as -36.5%.

As for `O=C(COc1ccc(Cl)cc1Cl)NCc1ccco1`, the “hERG current change (%, negative = inhibition) at 1uM” value worked out at 7.23%.

In the case of `CCCc1nc2sc3ccccc3c(=O)c2c(=O)n1CCOC`, the “hERG current change (%, negative = inhibition) at 1uM” value is 15.4%.

With `CCC(=O)N1N=C(c2cccs2)CC1c1ccc(C)cc1` (stereo not shown), the “hERG current change (%, negative = inhibition) at 1uM” value is 19.2%.

With `CCCN1CNC(=S)N(c2ccccc2C)C1`, the “hERG current change (%, negative = inhibition) at 1uM” value was 12.4%.

In the case of `O=[N+]([O-])c1ccc(Cl)c(CN2CCCCCC2)c1`, the “hERG current change (%, negative = inhibition) at 1uM” value is reported as 9.23%.

On to `CCCCNC(=O)c1ccccc1NS(=O)(=O)c1ccc2c(c1)OCCO2`, for which the “hERG current change (%, negative = inhibition) at 1uM” value stood at 13%.

As for `CC1CCC/C(=C\c2ccc(O)cc2)C1=O` (stereo not shown), the “hERG current change (%, negative = inhibition) at 1uM” value is given as 10.4%.

As for `COc1ccc2nc(N3CCC(C)CC3)c(C#N)cc2c1`, the “hERG current change (%, negative = inhibition) at 1uM” value is listed as 19.1%.

For `CC1CCCC(NC(=O)COC(=O)c2cccc(S(=O)(=O)N3CCCCC3)c2)C1C` (stereo not shown), the “hERG current change (%, negative = inhibition) at 1uM” value was 7.46%.

As to `COCCCNc1nc2ccccc2[nH]c1=O`, the “hERG current change (%, negative = inhibition) at 1uM” value amounted to 21.8%.

For the compound `CCN1CCN(c2nc(N(C)c3ccccc3)nc(N)c2[N+](=O)[O-])CC1`, the “hERG current change (%, negative = inhibition) at 1uM” value was determined as 23.3%.

In the case of `COc1ccccc1CCNC(=O)C(=O)NCC1OCCN1S(=O)(=O)c1ccc(Br)cc1` (stereo not shown), the “hERG current change (%, negative = inhibition) at 1uM” value was -9.98%.

With `CCCOc1ccc(/C=N/Nc2ccccc2[N+](=O)[O-])c(OCCC)c1`, the “hERG current change (%, negative = inhibition) at 1uM” value stood at 6.34%.

For the compound `Cc1ccc2cc(CN(Cc3ccco3)C(=S)NCC3CCCO3)c(=O)[nH]c2c1` (stereo not shown), the “hERG current change (%, negative = inhibition) at 1uM” value is 4.46%.

Take `CN(C)c1ccc(CN2CCCCC2)cc1`: the “hERG current change (%, negative = inhibition) at 1uM” value is 20.5%.

These data come from article PMC4336329 (PLoS ONE, 2015).
